In all, about 420,000 compounds went through this assay and about 50,000 (12%) were called active. The inconclusive results got no clear call from the source; some entries with a clear call stand among them for comparison. Calls come from the whole dose curve; as a rule, active = well fitted inhibition curve with a large enough effect; inconclusive = small, poorly fitted or top-dose-only effect; inactive = flat fitted curve, though single readings scatter. Potencies of inconclusive entries are left out as doubtful fits.
Test: qHTS for Inhibitors of human tyrosyl-DNA phosphodiesterase 1 (TDP1): qHTS in cells in presence of CPT; note: nearly all actives have a fitted effect of over 55% in size
Details: chicken DT40 Tdp1-/-;hTDP1 cells + 20 nM CPT, ATP luminescence, 48 h; series mostly up to 46.2 µM
Outline: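 Chicken DT40 Tdp1-/- cells stably complemented with human TDP1 were seeded at 400 cells/well in medium containing 20 nM camptothecin, exposed to pin-transferred compounds, and grown at 37 °C for at least 48 hr. Viability was read as ATP luminescence.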
Potency is the fitted concentration of half-maximal effect; tags give direction and shape of the fitted curve.

Question: For `C[C@@]12CCC3[C@@](CCC4[C@@]3(C)CCC[C@@]4(C)C(=O)NCc3ccccc3)(CC1=O)C2` (some centres undefined), which Potency is on record?
Answer: inconclusive [inhibitor, single point]

Question: Which Potency does the source give for `COc1ccc(C2=[N+]([O-])C(C)(C)C(c3ccccc3)=N2)cc1` here?
Answer: inconclusive [inhibitor, single point]

Question: For `CCN(CC)CCNC(=O)c1ccc2c(=O)n3nc(Nc4cccc(Cl)c4C)sc3nc2c1`, which Potency is on record?
Answer: active: 4.61 µM

Question: For `CON(C)C(=O)CCN(Cc1ccccc1)C(=O)OC(C)(C)C`, which Potency is on record?
Answer: inconclusive [inhibitor, partial curve]

Question: For `COc1ccc(-c2nsc(NC(=O)c3cccc(OC)c3)n2)cc1`, which Potency is on record?
Answer: inconclusive [inhibitor, partial curve]

Question: Which Potency does the source give for `CC1=C(C(=O)Nc2cc(C(=O)NCc3ccccc3)ccc2C)SCCO1` here?
Answer: inconclusive [inhibitor, partial curve]

Question: For `Fc1ccccc1SCc1nnc(-c2ccccc2Br)o1`, which Potency is on record?
Answer: active: 5.8 µM

Question: With `CCOc1ccc(C(c2c(C)[nH]n(-c3ccccc3)c2=O)c2c(C)[nH]n(-c3ccccc3)c2=O)cc1OC` as the compound, how does the Potency read?
Answer: inactive

Question: For `C=CCNC(=S)NNC(=O)c1cccn(Cc2ccc(Cl)cc2)c1=O`, which Potency is on record?
Answer: inactive

Question: For `C1COCCNCCOCCOCCOCCN1`, which Potency is on record?
Answer: inactive

Question: Which Potency does the source give for `Cc1ccccc1C(=O)NCC(=O)NC1CC1` here?
Answer: inactive

Question: Which Potency does the source give for `CC(C)(C)c1ccc(C(=O)N2CCC(NC(=O)c3ccccc3)CC2)cc1` here?
Answer: active: 14.6 µM

Question: Which Potency does the source give for `CCCn1c(C(C)Nc2nc(-c3ccc(C)cc3)cs2)nc2ccccc21` (centres undefined) here?
Answer: inconclusive [inhibitor, single point]

Question: With `CCOC(=O)C(NC(=O)c1ccccc1OCC)(Nc1ncccn1)C(F)(F)F` (centres undefined) as the compound, how does the Potency read?
Answer: inconclusive [inhibitor, single point]

Question: Which Potency does the source give for `O=C(N/N=C/C=C\c1ccco1)c1ccccn1` here?
Answer: active: 9.2 µM

Question: Which Potency does the source give for `Cc1ccc(CN2CCN(/N=C/c3ccc(C(F)(F)F)cc3)CC2)cc1` here?
Answer: inconclusive [inhibitor, single point]

Question: With `O=C(Nc1ccc2oc(-c3ccccc3)nc2c1)c1ccncc1` as the compound, how does the Potency read?
Answer: active: 16.4 µM

Question: Which Potency does the source give for `COc1ccc(CNC(=S)N/N=C/c2ccncc2)cc1` here?
Answer: inactive

Question: For `C[C@H]1COC(=O)[C@H](Cc2ccc(F)cc2)C/C=C\C[C@@H](CC(=O)N(CCO)Cc2ccccc2)C(=O)N1`, which Potency is on record?
Answer: active: 14.6 µM

Question: Which Potency does the source give for `CCc1ccc(N2CC(C)Cn3c2nc2c3c(=O)n(CCN3CCOCC3)c(=O)n2C)cc1` (centres undefined) here?
Answer: inconclusive [inhibitor, partial curve]

Question: For `O=C(OCCCN=C1NS(=O)(=O)c2ccccc21)C1CC(=O)N(c2ccc(Cl)cc2)C1` (centres undefined), which Potency is on record?
Answer: inactive

Question: For `COc1ccccc1CN(C)C(=O)CNC(=O)c1cccc(Cl)c1`, which Potency is on record?
Answer: inconclusive [inhibitor, partial curve]

Question: For `CNC(=O)c1c(NC(=O)CS(=O)(=O)c2ccc(Cl)cc2)sc(C)c1C`, which Potency is on record?
Answer: active: 9.2 µM

Question: For `O=C1NCCOC(=O)[C@@H](Cc2ccc(F)cc2)C/C=C\C[C@@H]1CC(=O)N(CCO)Cc1ccccc1`, which Potency is on record?
Answer: active: 18.4 µM

Question: Which Potency does the source give for `COc1cccc(C(CNC(=O)c2ccc(Cl)c(S(=O)(=O)N3CCCC3)c2)N(C)C)c1` (centres undefined) here?
Answer: inconclusive [inhibitor, single point]

Question: Which Potency does the source give for `CCCCNc1ccc2c(c1)C1CC2CCN1C(=O)OCc1ccccc1` (centres undefined) here?
Answer: inconclusive [inhibitor, single point]

Question: With `CCOc1ccccc1CNC(=O)c1ccc2nc(CCc3ccccc3)oc2c1` as the compound, how does the Potency read?
Answer: inconclusive [inhibitor, single point]

Question: For `COc1ccc(NC(=O)C(=O)c2cn(CC(=O)N3CCCC3)c3ccccc23)c(OC)c1`, which Potency is on record?
Answer: inactive

Question: Which Potency does the source give for `Cc1cc(C(=O)N/N=C/c2cc(Br)cc(Br)c2OC(=O)c2cccc(F)c2)n[nH]1` here?
Answer: active: 5.8 µM

Question: With `COc1ccc(N(C(=O)c2ccccc2OC(C)=O)C(C)C2CC2)cc1` (centres undefined) as the compound, how does the Potency read?
Answer: inconclusive [inhibitor, partial curve]

Question: With `CC1(C(=O)NS(=O)(=O)Cc2cccc(Cl)c2)CCN1C(=O)CCc1ccccc1` (centres undefined) as the compound, how does the Potency read?
Answer: inconclusive [inhibitor, partial curve]

Question: With `N#Cc1nc(/C=C/c2ccc(F)cc2)oc1N1CCCCC1` as the compound, how does the Potency read?
Answer: inconclusive [inhibitor, single point]

Question: With `COc1ccc2nc(Sc3c([N+](=O)[O-])nc(C)n3Cc3ccccc3)[nH]c2c1` as the compound, how does the Potency read?
Answer: active: 18.4 µM

Question: For `CC(=O)NCC(=O)N(C)C(C(=O)Nc1ccc2c(c1)OCCO2)c1ccccc1` (centres undefined), which Potency is on record?
Answer: inactive

Question: For `CCOc1cc(C(=O)N2CCN(C/C=C/c3ccccc3)CC2)cc(OCC)c1OCC`, which Potency is on record?
Answer: inconclusive [inhibitor, single point]

Question: With `COc1ccccc1NC(=O)C(=O)N/N=C/c1cccs1` as the compound, how does the Potency read?
Answer: inactive

Question: With `O=C(Nc1ccn(CCCN2CCN(c3ccccn3)CC2)c(=O)n1)OCc1ccccc1` as the compound, how does the Potency read?
Answer: inconclusive [inhibitor, single point]

Question: Which Potency does the source give for `CC(=O)N/N=C/c1cc(C(C)C)cc(/C=N/NC(C)=O)c1O` here?
Answer: inconclusive [inhibitor, single point]

Question: Which Potency does the source give for `CC(Oc1ccccc1)C(=O)Nc1ccc(C(=O)OCc2cc(=O)n3ccsc3n2)cc1` (centres undefined) here?
Answer: inconclusive [inhibitor, single point]

Question: For `COc1ccc(N2CCN(C(=S)NC(C)c3ccccc3)CC2)cc1` (centres undefined), which Potency is on record?
Answer: inconclusive [inhibitor, partial curve]

Question: For `CC(O)(c1cccnc1)c1nc(/C=C/c2ccccc2)cs1` (centres undefined), which Potency is on record?
Answer: inconclusive [inhibitor, single point]

Question: For `O=C(Nc1ccc2nn(-c3ccccc3)nc2c1)c1ccc2c(c1)OCCO2`, which Potency is on record?
Answer: inconclusive [inhibitor, single point]

Question: With `COC(CNc1ncnc2sc(-c3ccccc3)cc12)OC` as the compound, how does the Potency read?
Answer: inconclusive [inhibitor, partial curve, poor fit]

Question: Which Potency does the source give for `COC(=O)c1ccc(CN(Cc2ccc(OC)c(OC)c2)S(=O)(=O)c2ccc(F)c(C(=O)Nc3cc(C)ccc3C)c2)cc1` here?
Answer: inconclusive [inhibitor, partial curve, poor fit]

Source: PubChem BioAssay AID686979 (National Center for Advancing Translational Sciences (NCATS), 2013)
